Laboratory results as given in PMC7819943, “Rice protein-binding microarrays: a tool to detect cis-acting elements near promoter regions in rice”.
The other results are listed elsewhere or left out.

Each sequence was assayed against T1, OsWOX13 (Oryza sativa, UniProt Q5QMM3 1-267) (assay: protein-binding microarray (RPBM); PBS, 2% BSA, 51.3 ng/ul salmon testes DNA, 50 uM zinc acetate, 200 nM TF, 25 C, 1 h; high values mean tight binding). Conditions: protein: recombinant; tags: N-terminal polyhistidine and DsRed monomer fusion (pET32a); label: CyDye5-dUTP incorporated in the synthesized complementary strand; 3' TTTTT single-stranded linker to array surface; dsDNA, one strand shown.
T1 sequence: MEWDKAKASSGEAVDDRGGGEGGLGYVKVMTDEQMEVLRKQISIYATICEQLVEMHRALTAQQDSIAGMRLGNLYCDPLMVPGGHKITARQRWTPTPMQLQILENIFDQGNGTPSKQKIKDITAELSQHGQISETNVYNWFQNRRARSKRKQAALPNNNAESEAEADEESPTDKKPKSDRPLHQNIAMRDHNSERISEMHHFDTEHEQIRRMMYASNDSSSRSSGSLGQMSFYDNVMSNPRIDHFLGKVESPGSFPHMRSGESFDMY
Outline: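 The binding signal is fluorescence intensity per array feature (arbitrary units). Readings came from an Axon 4000B scanner after a washed, 2% BSA-blocked, double-stranded custom Agilent array had been incubated for 1 h at 25 °C with 200 nM protein and 50 µM zinc acetate. The protein was a Ni–NTA-purified transcription factor fused N-terminally to polyhistidine and DsRed, expressed in E. coli BL21-CodonPlus.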

Sequence	binding signal
TTGCTAATTGGGTTGCCAAGTGTGCCACGTGGGAGCAAACCGGAGTCACCTAGTGCAG	11100 fluorescence intensity (a.u.)
ATAATTGTACCTAAACGCAAAATAGACCTATTTGAACCGCCGGAGTCACCTAGTGCAG	8070 fluorescence intensity (a.u.)
ATTGGTTATAGATTAATTAGAGTTAGTAGTTGGCTATACTCGGAGTCACCTAGTGCAG	11700 fluorescence intensity (a.u.)
ACCATTATTGATTAAAACTAAGTACATAGATCGAATCGAGCGGAGTCACCTAGTGCAG	37800 fluorescence intensity (a.u.)
ATATAATTATAATTTATTTTATTGTGACTTGATTTATCATCGGAGTCACCTAGTGCAG	36400 fluorescence intensity (a.u.)
AAAGCAAATAGACAAGTTCATTAGTTTGATGCAGGATACACGGAGTCACCTAGTGCAG	4450 fluorescence intensity (a.u.)
AAATTTGACGACAAATTAAGGGAGCTAAAGTGAACTTACTCGGAGTCACCTAGTGCAG	3420 fluorescence intensity (a.u.)
ATGAATTGACTATTAAGTTGATTATATGTTATTTACAGCTCGGAGTCACCTAGTGCAG	43400 fluorescence intensity (a.u.)
ACTGAACAAATTGAGCATGGTGTATATGTCACATTTTCTACGGAGTCACCTAGTGCAG	6220 fluorescence intensity (a.u.)
CCATAATCTTGGACTAATTTGCGAGACGAATCTAATGAGCCGGAGTCACCTAGTGCAG	18900 fluorescence intensity (a.u.)
CAAAATTGAATCCACCTCATTTCTACCAACCTTAAATACACGGAGTCACCTAGTGCAG	16800 fluorescence intensity (a.u.)
TTAATTAGCAGTAGCACAAAGCAGCAATATAATGGCGACGCGGAGTCACCTAGTGCAG	3890 fluorescence intensity (a.u.)
TCTAATTATTGCTCGGATGGCGCTATTACTTTTGTACCTACGGAGTCACCTAGTGCAG	6080 fluorescence intensity (a.u.)
CCATCACTTGACAATTATGATTCAGACCTTGCTTGGCCTCCGGAGTCACCTAGTGCAG	4080 fluorescence intensity (a.u.)
TCTAATTAGTAGTATTATTATACATGTGGTCAGCAATTTTCGGAGTCACCTAGTGCAG	31200 fluorescence intensity (a.u.)
AGTTATTGATGGTTAAATTTATAAAAGTTTAATCTCAACCCGGAGTCACCTAGTGCAG	19800 fluorescence intensity (a.u.)
GGATAATTTACTACTCCCTCTGTCCCAAAATATAAGAACCCGGAGTCACCTAGTGCAG	21100 fluorescence intensity (a.u.)
TGTGATTATTGCCAGCGAATCTCCAACTCTGAAACTCTCACGGAGTCACCTAGTGCAG	28700 fluorescence intensity (a.u.)
AATAATTAATGAATACAATCTTAGTCGAATCAGCTAGAATCGGAGTCACCTAGTGCAG	15600 fluorescence intensity (a.u.)
TTCTGATTTCTTTCATGTACAAGTAGATGCAGGCGCCACCCGGAGTCACCTAGTGCAG	9600 fluorescence intensity (a.u.)
GGGACTGAGAGGGTAATTGAAGGTATGATGGAGAAAATTTCGGAGTCACCTAGTGCAG	13600 fluorescence intensity (a.u.)

Sequence	binding signal
ATATTACATACCAATTGACCGATTGAAAATGGAGATCGCCCGGAGTCACCTAGTGCAG	5350 fluorescence intensity (a.u.)
TTTATTAATTTGTATGTGAAACTGACATGTGGGTCCCACGCGGAGTCACCTAGTGCAG	23600 fluorescence intensity (a.u.)
ATATTGATGTTAATGAATCTAGACATATCAATATAAATGTCGGAGTCACCTAGTGCAG	4730 fluorescence intensity (a.u.)
CATGGGTAATTTACTAGCAATATAAAAGGACAAATATACGCGGAGTCACCTAGTGCAG	3280 fluorescence intensity (a.u.)
GTTAGATGGATGGAGTAATAAATTAACTCTAAAATTAACTCGGAGTCACCTAGTGCAG	7570 fluorescence intensity (a.u.)
ATTGAGGCATGTCAATTAGATCCTGTCAATAGTCGAGGGACGGAGTCACCTAGTGCAG	7430 fluorescence intensity (a.u.)
ATGTTATAATTTCTAGATGATACGGCAATTTACTACACTGCGGAGTCACCTAGTGCAG	4780 fluorescence intensity (a.u.)
TCAATTAATTAAGCAAACGGCTTGCAACCTCTGATTGCCACGGAGTCACCTAGTGCAG	22700 fluorescence intensity (a.u.)
TTGCTGAGGTATTCCCAAATTGATTGTCATCTAACTGGTGCGGAGTCACCTAGTGCAG	11000 fluorescence intensity (a.u.)
GCTCTCAAAATAATTTGAATCATAGACATGCAAAATGGGTCGGAGTCACCTAGTGCAG	3770 fluorescence intensity (a.u.)
ACTAATTTAACGAGAGTATTTTCTATATACAAATACAACACGGAGTCACCTAGTGCAG	12000 fluorescence intensity (a.u.)
ACTGATGATGTGAGATGATATGATACAGACGGCAATGCACCGGAGTCACCTAGTGCAG	11900 fluorescence intensity (a.u.)
ATTCCAATTGATTTTAGTTAGTTTTCATACATAGTTAACACGGAGTCACCTAGTGCAG	10900 fluorescence intensity (a.u.)
ATCATTTATAGTCAATTTAATAGCCAATTCATACAATAGTCGGAGTCACCTAGTGCAG	5170 fluorescence intensity (a.u.)
ACACAAGTCAGTCCAGAGTGATTGTTTATGCTGGTAATGCCGGAGTCACCTAGTGCAG	5710 fluorescence intensity (a.u.)
AATTGAATAATCTAATTTAATTTCTATATTGCAGCAACTTCGGAGTCACCTAGTGCAG	13900 fluorescence intensity (a.u.)
ACATCATCTTAAATTTGTAGTTTTATTTATGATAAACAGACGGAGTCACCTAGTGCAG	3340 fluorescence intensity (a.u.)
CAACTTAAAATTAAAATTTGACATCAGTATATATATACACCGGAGTCACCTAGTGCAG	6320 fluorescence intensity (a.u.)
CATTGTAGAAACCAATCACTGCAGGGAACTCGAGTAAACTCGGAGTCACCTAGTGCAG	3730 fluorescence intensity (a.u.)
GTTGATATGTGAAATAAAATTTTACCTTGTAAAATATGACCGGAGTCACCTAGTGCAG	3570 fluorescence intensity (a.u.)
TCGGCCCAATCAATTGCGTTGGTTATGAATGGCCCATGGACGGAGTCACCTAGTGCAG	13500 fluorescence intensity (a.u.)

Sequence	binding signal
ACGTCCTATCATGAATTTTGCCTTTGTCGTCCTGCAACCACGGAGTCACCTAGTGCAG	3160 fluorescence intensity (a.u.)
AAGAAAATTGTTAATTTCGAATTTGCAGTCCAGCACCTTTCGGAGTCACCTAGTGCAG	9810 fluorescence intensity (a.u.)
GCCTCTTAATTAACTAATTAAGGTGCAATTGAGCTGGGCTCGGAGTCACCTAGTGCAG	50300 fluorescence intensity (a.u.)
TACAATAATTAGCATGTAAAGACAAGTGCTTAATACTACCCGGAGTCACCTAGTGCAG	13800 fluorescence intensity (a.u.)
GGGTATATAGTAAATTTCAATCATGGTGCCCGGGCACCATCGGAGTCACCTAGTGCAG	4560 fluorescence intensity (a.u.)
AAAATATCAATTGGCCATAATCATTGTAAGCACTATACAGCGGAGTCACCTAGTGCAG	7780 fluorescence intensity (a.u.)
CCTCGTCAATCCTCTACATCCTGCGTTTCTTCCCCGTATACGGAGTCACCTAGTGCAG	3660 fluorescence intensity (a.u.)
TAAGTGATTTACTGCTAGCTTGTACCTTTTCTGTTTGTAACGGAGTCACCTAGTGCAG	11300 fluorescence intensity (a.u.)
GCGAAATTGGCACGTCGCAAAGTTTGCTGATGCATGGGAGCGGAGTCACCTAGTGCAG	12700 fluorescence intensity (a.u.)
CACATGACGGACTGAATGAATTTCTGAAATATGAAGTTCTCGGAGTCACCTAGTGCAG	4000 fluorescence intensity (a.u.)
AATTTCAATCAAACTTTCAATTTTGACGTGAACTAAACACCGGAGTCACCTAGTGCAG	25900 fluorescence intensity (a.u.)
TAAACCTAAATTTCCACTAAAATTTATATTTTAAAATCTCCGGAGTCACCTAGTGCAG	4090 fluorescence intensity (a.u.)
TTAAAGTCTAATTACGCCATGATTTGACAATGTGGTGCTACGGAGTCACCTAGTGCAG	30000 fluorescence intensity (a.u.)
CTGTATTTGACTGTTACTGCTTTTGGATTTTGTTTCATTTCGGAGTCACCTAGTGCAG	6280 fluorescence intensity (a.u.)
ATGACTGACGATTCGATCCACCAGATCAGGTGATCATCGACGGAGTCACCTAGTGCAG	8640 fluorescence intensity (a.u.)
GAACTGACAGACAGTCCCCTCCATTAGATGGAGGGAGAATCGGAGTCACCTAGTGCAG	7180 fluorescence intensity (a.u.)
GAACATGATAGCTATTCACTTATTTGCAGATTAAATTACGCGGAGTCACCTAGTGCAG	5650 fluorescence intensity (a.u.)
TCCTACTTGATTGAGGGTAGATTGACCGCTAGGGAAAATTCGGAGTCACCTAGTGCAG	23700 fluorescence intensity (a.u.)
CATATAATTGCTGATTCAGTGATTCGATTCCGTCGAGACTCGGAGTCACCTAGTGCAG	41600 fluorescence intensity (a.u.)
TCCGCATCCAACTTTGATTGTCCGTCTTATTTGAAATTTTCGGAGTCACCTAGTGCAG	4950 fluorescence intensity (a.u.)
GTAACATACATAATCATCCTCTGTAATGGTGTGTAAGCTCCGGAGTCACCTAGTGCAG	5680 fluorescence intensity (a.u.)

Sequence	binding signal
CGACTGGATTGAAGCATTTTCTGCCTAGCTGTCTGTCTCTCGGAGTCACCTAGTGCAG	10100 fluorescence intensity (a.u.)
CTTTACATTTTAATTTGGACCACCATATTCTATCCATCTCCGGAGTCACCTAGTGCAG	3500 fluorescence intensity (a.u.)
CCTTTCTTAGATTAGATTGATCCGTGACTATGCTTCTTCTCGGAGTCACCTAGTGCAG	33500 fluorescence intensity (a.u.)
GTTAATTTATTTCGGAATTGAACGAAGACTACTTAATCCACGGAGTCACCTAGTGCAG	30500 fluorescence intensity (a.u.)
GAAACTTCGGGCAATCAAATTTACCTATTTCGTGTAGATTCGGAGTCACCTAGTGCAG	3490 fluorescence intensity (a.u.)
GGAAGATGTAATTTTGTGTAAAGCACATGAAGTTAATTTGCGGAGTCACCTAGTGCAG	3970 fluorescence intensity (a.u.)
TGGTTATTAGATTTACTATAGATGAATTATAGCTGGTAGTCGGAGTCACCTAGTGCAG	3330 fluorescence intensity (a.u.)
CTGATTGGCCATGAGTCCAGAGATAGCATTGAACACAGGACGGAGTCACCTAGTGCAG	32400 fluorescence intensity (a.u.)
AAATCACAATAAAATAATTAATAATTATGTGCTTATACTACGGAGTCACCTAGTGCAG	8700 fluorescence intensity (a.u.)
CAGCTAAGATAATTAACTTAGCTAGTTGTCTCAGGATTATCGGAGTCACCTAGTGCAG	5810 fluorescence intensity (a.u.)
AACTAATTACTACATTGTAACTTCCCATAACTTTGAACCGCGGAGTCACCTAGTGCAG	25900 fluorescence intensity (a.u.)
TTGATTAGTCCTCCGTGGTTAATTAATTAGTGGAGAAACCCGGAGTCACCTAGTGCAG	20600 fluorescence intensity (a.u.)
AAAATTACGTAATTATAATTTATTTTGTTATGAGTTGTTTCGGAGTCACCTAGTGCAG	31300 fluorescence intensity (a.u.)
TTCAAATTTGTATTTTAGTTATTAGTACGCAAAGCTGCTCCGGAGTCACCTAGTGCAG	6590 fluorescence intensity (a.u.)
TTCCCTGATTTCTTCTGCGCTGACTCCTCCCTTACGATGCCGGAGTCACCTAGTGCAG	9800 fluorescence intensity (a.u.)
AATGATAATCATGTTCGATTTTAAAATCTCAATGACAATACGGAGTCACCTAGTGCAG	7100 fluorescence intensity (a.u.)
CCTTGTGATTGCTTTGCTCATCCCTCTTCGCTGCCCCACTCGGAGTCACCTAGTGCAG	38200 fluorescence intensity (a.u.)
GGTAATTAAGTCACTAGCAAACTTTTGGCACAATTAAACTCGGAGTCACCTAGTGCAG	7350 fluorescence intensity (a.u.)
ATTCAATCAATAATTGAATATATATTCATAATAAATTTGTCGGAGTCACCTAGTGCAG	24600 fluorescence intensity (a.u.)
TTTACACTATAATTATATTCACTTATACATTGTAATTACACGGAGTCACCTAGTGCAG	13800 fluorescence intensity (a.u.)
GTTAATTACTTGAACCACGTAAGAAAACAAGGACACATGCCGGAGTCACCTAGTGCAG	10300 fluorescence intensity (a.u.)
